# In PubChem BioAssay AID1745853 (National Center for Advancing Translational Sciences (NCATS), 2022):
# This is one part of the list. Further columns of the screen follow, without active or inactive calls.
# Legend:
# Experiment in all cases: Primary Screen for Target Class Profiling of Small Molecule Inhibitors of Methyltransferases
# [1] = biological target: Glycine N-methyltransferase (Homo sapiens) (UniProt Q14749); conditions: purified enzyme, MTase-Glo SAH luminescence; measured here: GNMT inhibition; at 40 µM; stronger effect = lower value
# Outline: (§1)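 Each enzyme was reacted with SAM and its substrate, with compounds tested once at 40 uM; SAH formed was read by MTase-Glo luminescence.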
# [2] = biological target: Guanidinoacetate N-methyltransferase (Homo sapiens) (UniProt Q14353); conditions: purified enzyme, MTase-Glo SAH luminescence; measured here: GAMT inhibition; at 40 µM; stronger effect = lower value
# Outline: as §1
# [3] = biological target: Histamine N-methyltransferase (Homo sapiens) (UniProt P50135); conditions: purified enzyme, MTase-Glo SAH luminescence; measured here: HNMT inhibition; at 40 µM; stronger effect = lower value
# Outline: as §1
# [4] = biological target: Nicotinamide N-methyltransferase (Homo sapiens) (UniProt P40261); conditions: purified enzyme, MTase-Glo SAH luminescence; measured here: NNMT inhibition; at 40 µM; stronger effect = lower value
# Outline: as §1
# [5] = biological target: Phenylethanolamine N-methyltransferase (Homo sapiens) (UniProt P11086); conditions: purified enzyme, MTase-Glo SAH luminescence; measured here: PNMT inhibition; at 40 µM; stronger effect = lower value
# Outline: as §1
# % is set by controls: 0 for no effect and ±100 for the full control effect.
SMILES,"activity change, negative = inhibition [1] [%]","activity change, negative = inhibition [2] [%]","activity change, negative = inhibition [3] [%]","activity change, negative = inhibition [4] [%]","activity change, negative = inhibition [5] [%]"
CCCn1c(=O)c2ccccc2n2c(SCC(=O)Nc3ccc(Cl)cc3)nnc12,0.723,0.092,6.32,-5.69,4.32
OCC1NCC(O)C(O)C1O (stereo not given),1.67,9.95,4.72,-2.33,5.85
Cc1cc2[nH]c(=O)[nH]c2cc1S(=O)(=O)NCc1ccccc1Cl,-1.7,4.12,-6.09,-9.41,-9.74
COc1ccc(NC(=O)CCc2nnc3n(Cc4ccc(C)cc4)c(=O)c4ccccc4n23)cc1OC,-5.27,2.91,-3.93,6.61,-6.3
O=C(Nc1ccccc1Br)N1Cc2c(sc3c2CCCC3)-n2cccc2C1c1ccccc1 (stereo not given),-1.42,0,-1.27,-0.231,4.37
Cc1cccc(Cn2nc3n(CCC(C)C)c(=O)c4ccccc4n3c2=O)c1,-2.14,0,4.38,-7.47,-1.8
COc1cc2nccc(Oc3ccc(NC(=O)NC4CC4)c(Cl)c3)c2cc1C(N)=O,-6.83,7.35,2.2,-16.6,4.68
CC(=O)O[C@@H]1C[C@@]2(C)C(CC[C@]3(C)C2CC=C2C4CC(C)(C)CC[C@]4(C(=O)O)CC[C@]23C)C(C)(C)[C@H]1O (stereo not given in full),-1.66,-5.7,4.46,-24.5,-9.14
COc1ccccc1CC(=O)N1CCCc2ncc(C(=O)Nc3cccc(Cl)c3)cc21,-5.66,0.1,-73.4,-5.99,-6.26
CC(C)CNC(=O)c1ccc2c(=O)n(C)c3nn(CC(=O)NCc4ccc(Cl)cc4)c(=O)n3c2c1,4.69,0.723,7.74,6.55,5.19
CCOC(=O)C1CCN(S(=O)(=O)c2ccc3[nH]c(=O)[nH]c3c2)CC1,12.1,1.86,9.43,7.26,5.57
CCCn1c(=O)c2ccc(C(=O)NC(C)CC)cc2n2c(SCC(=O)c3ccc(OC)cc3)nnc12 (stereo not given),2.45,0,0.831,-1.27,3.37
O=C(O)Cc1ccc2oc(-c3ccc(NC(=O)/C=C/c4ccc(Br)cc4)c(F)c3)nc2c1,7.49,7.19,5.81,-6.83,3.56
c1cc(OCCCN2CCCCC2)ccc1CN1CCCCC1,-3.22,-13.5,-66.3,-21.4,-3.92
O=C1c2cc(N3CCOCC3)nc(-c3cccc(CO)c3)c2CN1c1ccccc1,-6.73,0.097,-0.216,-5.15,-0.892
CCn1c(=O)[nH]c2cc(Cl)c(Cl)cc21,-10.2,9.49,3.18,-7.21,4.53
CCCCNC(=O)c1cc2n(n1)CC(C)(C(=O)NCc1ccc(F)cc1)N(C)C2=O (stereo not given),1.89,4.09,-1.53,1.06,-1.82
